{
  "source": "PubChem BioAssay AID686979",
  "about": "(National Center for Advancing Translational Sciences (NCATS), 2013)",
  "note": "Several values for one entry are separate records, joined by “and”; a condition that tells them apart may be missing. Equal values may be shown once. About 50,000 (12%) of roughly 420,000 compounds were called active. The shares of active, inactive and inconclusive entries below differ from those in the screen. Calls come from the whole dose curve; as a rule, active = well fitted inhibition curve with a large enough effect; inconclusive = small, poorly fitted or top-dose-only effect; inactive = flat fitted curve, though single readings scatter. Potencies of inconclusive entries are doubtful fits and often do not repeat. % is set by controls: 0 for no effect and ±100 for the full control effect; potency is the fitted concentration of half-maximal effect; tags give direction and shape of the fitted curve.",
  "data": [
    {"assay": "qHTS for Inhibitors of human tyrosyl-DNA phosphodiesterase 1 (TDP1): qHTS in cells in presence of CPT; note: nearly all actives have a fitted effect of over 55% in size", "settings": "chicken DT40 Tdp1-/-;hTDP1 cells + 20 nM CPT, ATP luminescence, 48 h; activity change, negative = growth inhibition: at 46.2 µM (top of the series) unless noted", "in_short": "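Cell growth measured by CellTiter-Glo luminescence after a minimum 48 h, 37 C compound exposure with 20 nM CPT in Tdp1-knockout DT40 cells stably expressing hTDP1, seeded 400/well; qHTS titration format.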", "values": [
      {"smiles": "Cc1cccnc1NC(=O)CCc1nnc2ccc(NCc3ccco3)nn12", "Potency": "inconclusive: 29.1 µM [inhibitor, single point]"},
      {"smiles": "Nc1cc(-c2ccncc2)c[nH]c1=O", "Potency": "inactive and inconclusive: 29.1 µM [inhibitor, single point]"},
      {"smiles": "O=[N+]([O-])c1cccc(-c2c(-c3ccccc3)ncc3cc(F)ccc23)c1", "Potency": "active: 8.2 µM"},
      {"smiles": "COC(=O)[C@]12CCCCC=C1N(CCc1ccc(OC)c(OC)c1)C(=O)[C@H](CC(=O)N1CCN(C(=O)c3ccco3)CC1)C2", "Potency": "inconclusive: 0.0092 µM [inhibitor, full curve]"},
      {"smiles": "CCN(c1ccccc1C)S(=O)(=O)c1nnc(NC(=O)c2ccccc2C)s1", "Potency": "inconclusive: 23.1 µM [inhibitor, single point]"},
      {"smiles": "Cc1ccc(C)c(NS(=O)(=O)c2ccc3c(c2)NC(=O)CCS3)c1", "Potency": "inconclusive: 23.1 µM [inhibitor, single point]"},
      {"smiles": "O=C(NCCO)c1cccc(-c2cnc3c(Nc4cccc(OC(F)(F)C(F)F)c4)nccn23)c1", "Potency": "inconclusive: 20.6 µM [inhibitor, single point]"},
      {"smiles": "Cc1ccc(OCc2cc(C(=O)NC3CCc4ccccc43)no2)cn1", "note": "(configuration not stated)", "Potency": "active: 18.4 µM"},
      {"smiles": "O=C1NC(Cc2ccccc2)c2nc3cc(Cl)ccc3c(=O)n2-c2ncccc21", "note": "(configuration not stated)", "Potency": "inconclusive: 29.1 µM [inhibitor, single point]"},
      {"smiles": "CCC(=O)Nc1ccc(-c2cc(-c3ccccc3)nc(-c3ccc(NC(=O)CC)cc3)n2)cc1", "Potency": "inconclusive: 11.6 µM [inhibitor, partial curve]"},
      {"smiles": "CCOc1ccc(OCC)c(NC(=O)C2CCCN(S(=O)(=O)c3cc(Br)cc4c3N(C(=O)CC)CC4)C2)c1", "note": "(configuration not stated)", "Potency": "inconclusive: 11.6 µM [inhibitor, partial curve]"},
      {"smiles": "O=C(Nc1ccccc1N1CCCC1)c1cccc(-c2cc3ccccc3oc2=O)c1", "Potency": "inconclusive: 20.6 µM [inhibitor, single point]"},
      {"smiles": "COc1ccc2sc(N(CCCN(C)C)C(=O)c3ccc(S(=O)(=O)N(C)Cc4ccccc4)cc3)nc2c1", "Potency": "inconclusive: 23.1 µM [inhibitor, single point]"},
      {"smiles": "O=C(CSc1nnc(-c2cccnc2)o1)Oc1ccccc1", "activity change, negative = growth inhibition": "inactive: -13%"},
      {"smiles": "Cc1cc(NC(c2cccnc2)c2c(C)[nH]c3ccccc23)no1", "note": "(configuration not stated)", "Potency": "inconclusive: 23.1 µM [inhibitor, single point]"},
      {"smiles": "CN1CCC(N(C)C(=O)NC2CCCCC2)CC1", "activity change, negative = growth inhibition": "inactive: 3.15%"},
      {"smiles": "COc1ccc2[nH]cc(CCNc3cc(-c4ccc(C(=O)N(C)C)cc4)ncn3)c2c1", "Potency": "inconclusive: 23.1 µM [inhibitor, single point]"},
      {"smiles": "CC(=O)CSc1nnc(-c2ccc3c(c2)OCO3)o1", "activity change, negative = growth inhibition": "inactive: -11.2%"},
      {"smiles": "Cc1nn(C(=O)c2c(F)cccc2F)c(C)c1S(=O)(=O)N1CCCCCC1", "activity change, negative = growth inhibition": "inactive: -1.65%"},
      {"smiles": "Cc1cccc(/C=N/N(CCO)C2=NS(=O)(=O)c3ccccc32)c1", "Potency": "inconclusive: 16.4 µM [inhibitor, partial curve, poor fit]"},
      {"smiles": "O=C(/C=C/NNC(=O)c1cccc(Br)c1)c1cccc(Br)c1", "Potency": "inconclusive: 20.6 µM [inhibitor, single point]"},
      {"smiles": "CCN(C(=O)CSc1ncccc1C(=O)OC(C)C)c1cccc(C)c1", "Potency": "active: 20.6 µM"},
      {"smiles": "CCn1c(CN2CCOCC2)nc2cc(NC(=O)c3cccc([N+](=O)[O-])c3)ccc21", "Potency": "inconclusive: 11.6 µM [inhibitor, partial curve]"},
      {"smiles": "CC(NCc1ccc2c(c1)OCO2)C(=O)NC1CCCc2ccccc21", "note": "(configuration not stated)", "Potency": "inconclusive: 14.6 µM [inhibitor, partial curve]"},
      {"smiles": "O=C(NCCCN1CCOCC1)/C(=C/c1ccc(-c2cccc([N+](=O)[O-])c2)o1)NC(=O)c1ccccc1", "Potency": "inconclusive: 29.1 µM [inhibitor, single point]"},
      {"smiles": "Cn1cccc1/C=C(/C#N)c1ccc(F)cc1", "activity change, negative = growth inhibition": "inactive: -21.2%"},
      {"smiles": "Cc1ccc(CC2C(=O)N(c3cc(C)ccc3C)C(=O)C2C)cc1", "note": "(configuration not stated)", "activity change, negative = growth inhibition": "inactive: -25%"},
      {"smiles": "Cc1ccc(C(=O)N2CCCC(C(=O)c3cc(F)ccc3F)C2)s1", "note": "(configuration not stated)", "Potency": "inconclusive: 29.1 µM [inhibitor, single point]"},
      {"smiles": "O=C(Nc1ccc2c(c1)OCO2)c1cc(-c2cccnc2)nc2ccccc12", "activity change, negative = growth inhibition": "inactive: -17.1%"},
      {"smiles": "Cc1cc(NC(=O)CCCS(=O)(=O)c2nc(-c3cccs3)cc(C(F)(F)F)n2)no1", "Potency": "active: 2.59 µM"},
      {"smiles": "CC1(Cc2ccc(Cl)cc2)C(=O)Nc2c(Cl)ccc(Cl)c21", "note": "(configuration not stated)", "Potency": "active: 25.9 µM"},
      {"smiles": "Cn1c(Cc2nc(-c3cnccn3)no2)nnc1SCC(=O)Nc1ccccc1", "activity change, negative = growth inhibition": "inactive: -0.464%"},
      {"smiles": "COc1ccc(CN2C(=O)C(CC(=O)NCc3cccs3)CC(C(=O)N(C)C)=C2C)cc1", "note": "(configuration not stated)", "activity change, negative = growth inhibition": "inactive: -21.4%"},
      {"smiles": "CC1=CC(C)(C)Nc2ccc(OC(=O)C(Cc3ccccc3)N3C(=O)C4CCCCC4C3=O)cc21", "note": "(configuration not stated)", "Potency": "inconclusive: 18.4 µM [inhibitor, single point]"},
      {"smiles": "CS(=O)(=O)Nc1ccc([N+](=O)[O-])cc1OC1CCCCC1", "Potency": "inactive"},
      {"smiles": "CC(C)(C)c1ccc(C(=O)NCCC(=O)N2CCC3(CC2)NCCc2[nH]cnc23)cc1", "activity change, negative = growth inhibition": "inactive: -0.898%"},
      {"smiles": "NC(N)=NCC1COc2ccccc2O1", "note": "(configuration not stated)", "activity change, negative = growth inhibition": "inactive: -20.1%"},
      {"smiles": "COc1ccc(C(Sc2ccccc2)c2ccccc2)cc1OC", "note": "(configuration not stated)", "activity change, negative = growth inhibition": "inactive: -15.1%"},
      {"smiles": "COc1cc(SC)ccc1C(=O)NCCc1c[nH]c2ccccc12", "Potency": "inconclusive: 29.1 µM [inhibitor, single point]"},
      {"smiles": "COc1ccc(C(=O)Nc2ccc(NC(=O)c3cc(OC)c(OC)c(OC)c3)cn2)cc1", "activity change, negative = growth inhibition": "inconclusive: -7.07% [inhibitor]"},
      {"smiles": "CCOc1ccccc1CNC(=O)c1nn(CC)cc1[N+](=O)[O-]", "activity change, negative = growth inhibition": "inactive: 5.21%"},
      {"smiles": "COC(=O)c1cc(Sc2cccc(Cl)c2Cl)ccn1", "Potency": "inconclusive: 0.0052 µM [inhibitor, full curve, poor fit]"},
      {"smiles": "CC(=O)Nc1nnc2n1CCS2", "activity change, negative = growth inhibition": "inactive: -8.72%"},
      {"smiles": "Cc1ccc(OCCCNCCO)c(Br)c1", "Potency": "active: 4.61 µM"},
      {"smiles": "C=CCn1c(SCc2ccccc2F)nc2cc(C(=O)O)ccc2c1=O", "activity change, negative = growth inhibition": "inactive: 1.4%"},
      {"smiles": "CCCCCCc1c(C)nc(-n2[nH]c(C)c(CCO)c2=O)[nH]c1=O", "Potency": "inconclusive: 23.1 µM [inhibitor, single point]"},
      {"smiles": "CCN(CC(=O)Nc1ccc(S(=O)(=O)N2CCCC2)cc1)Cc1ccccc1", "Potency": "active: 16.4 µM"},
      {"smiles": "CC(C)(C)c1ccc(O)c(N=Cc2cccc([N+](=O)[O-])c2)c1", "Potency": "inconclusive: 22.4 µM [inhibitor, single point]"},
      {"smiles": "Cc1cc(C)n2nc(C(=O)OCC(=O)Nc3cc(S(=O)(=O)N4CCOCC4)ccc3Cl)nc2n1", "activity change, negative = growth inhibition": "inactive: 5.92%"},
      {"smiles": "COc1cc2oc(=O)c3c4c(cc5ccc(c1CCN(C)C)c2c53)OCO4", "Potency": "inconclusive: 6.51 µM [inhibitor, single point]"},
      {"smiles": "CCOC(=O)C1(Cc2cccc(OC)c2)CCCN(C(=O)c2ccc(OC)o2)C1", "note": "(configuration not stated)", "Potency": "inconclusive: 18.4 µM [inhibitor, partial curve]"},
      {"smiles": "COc1ccc(C)cc1NC(=O)c1nnn(-c2c(C)cccc2C)c1C", "Potency": "inconclusive: 25.9 µM [inhibitor, single point]"},
      {"smiles": "CCOc1ccc2[nH]c(C(=O)N/N=C/c3cc(OC)c(OC)c(OC)c3)cc2c1", "Potency": "inconclusive: 14.6 µM [inhibitor, partial curve]"},
      {"smiles": "O=C1[C@H]2[C@@H](c3ccc(F)cc3)N3C(=O)N(c4cccc(F)c4)C(=O)[C@@]3(Cc3ccc(Cl)cc3)[C@H]2C(=O)N1C1CCCCC1", "Potency": "inconclusive: 29.1 µM [inhibitor, single point]"},
      {"smiles": "Cc1ccc(C)c(NC(=O)/C(C#N)=C/c2ccc(C(C)C)cc2)c1", "activity change, negative = growth inhibition": "inconclusive: -37.2% [inhibitor]"},
      {"smiles": "S=C(NCc1ccccc1)Nc1ccc2cn[nH]c2c1", "activity change, negative = growth inhibition": "inactive: -1.1%"},
      {"smiles": "CN(C)CCN(C(=O)c1cccs1)c1nc2cc3c(cc2s1)OCCO3", "Potency": "inconclusive: 18.4 µM [inhibitor, single point]"},
      {"smiles": "COc1ccc(C)cc1NC(=O)c1oc2ccc(S(=O)(=O)N3CCC4(CC3)OCCO4)cc2c1C", "Potency": "inconclusive: 6.51 µM [inhibitor, partial curve]"},
      {"smiles": "CCN(C(=O)COC(=O)c1c2c(nc3ccccc13)/C(=C/c1ccccc1)CC(C)C2)C1CCS(=O)(=O)C1", "note": "(configuration not stated)", "Potency": "inconclusive: 29.1 µM [inhibitor, single point]"},
      {"smiles": "O=C1CC2(CCN(C(=O)c3ccccc3[N+](=O)[O-])CC2)Oc2ccccc21", "Potency": "inconclusive: 29.1 µM [inhibitor, single point]"},
      {"smiles": "CSc1ncc(CN2CCCC(C(=O)c3ccc(C(C)(C)C)cc3)C2)cn1", "note": "(configuration not stated)", "Potency": "active: 16.4 µM"},
      {"smiles": "CC(=O)Nc1ccc(NC(=O)CSc2nccn2Cc2ccccc2)cc1", "Potency": "inconclusive: 6.51 µM [inhibitor, partial curve, poor fit]"},
      {"smiles": "CCOC(=O)C(C(=O)NCc1ccc(C)cc1)c1ncc(C(F)(F)F)cc1Cl", "note": "(configuration not stated)", "activity change, negative = growth inhibition": "inactive: -12.3%"},
      {"smiles": "CCN(CC)CCOC(=O)c1ccc(N/C=C(/C#N)c2nc(-c3ccc(OC)cc3)cs2)cc1", "Potency": "active: 4.11 µM"},
      {"smiles": "O=C(Nc1cccnc1)c1ccccc1NS(=O)(=O)c1ccc(F)cc1", "Potency": "inconclusive: 23.1 µM [inhibitor, single point]"},
      {"smiles": "CCCCc1ccc2nc(NC(=O)OC)[nH]c2c1", "Potency": "active: 0.0718 µM"},
      {"smiles": "COc1ccc(Cl)cc1C(=O)Nc1ccc(NC(=O)C(C)C)cc1", "Potency": "active: 18.4 µM"},
      {"smiles": "COc1cc(NC(=O)CN2Cc3ccccc3C2=O)cc(OC)c1OC", "activity change, negative = growth inhibition": "inactive: -15.4%"},
      {"smiles": "CC(=O)NCCNC(=O)CCNC(=O)c1ccc(Cl)cc1", "activity change, negative = growth inhibition": "inactive: -0.979%"},
      {"smiles": "CSc1ccc(CNC(=O)C2CCC(=O)N(CCc3cccc(F)c3)C2)cc1", "note": "(configuration not stated)", "activity change, negative = growth inhibition": "inactive: -17.6%"},
      {"smiles": "CC1CCCCN1S(=O)(=O)c1ccc(NC(=O)c2cccs2)cc1", "note": "(configuration not stated)", "Potency": "inconclusive: 29.1 µM [inhibitor, single point]"},
      {"smiles": "CCc1cccc(NC(=O)C2CCN(S(=O)(=O)c3c(C)noc3C)CC2)c1", "activity change, negative = growth inhibition": "inactive: 9.26%"}
    ]}
  ]
}
